Measurements taken from the supplement of paper PMC8728848.
This is one part of the list.

Assays:
Test in all cases: glycan array binding signal (z-score within array); higher = stronger binding
Details in all cases: glycan notation: IUPAC condensed, linker removed
[1] = biological target: Gal(b1-3)GlcNAc(a1-3)Gal(b1-4)GlcNAc
Method in brief: (§1)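 Glycan array data were curated from 3228 arrays in the Consortium for Functional Glycomics database and kept only where the protein sequence was available. Glycan names were converted to IUPAC-condensed notation, and columns mapping to the same glycan were averaged. The binding signal is a within-array Z-score, averaged across arrays of the same protein sequence at different concentrations or buffers and across linkers. Negative Z-scores can be read as non-binding.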

[2] = biological target: Gal(b1-3)GlcNAc(a1-6)Gal(b1-4)GlcNAc
Method in brief: as §1

Gal(b1-3)GlcNAc(b1-2)Man = biological target: Gal(b1-3)GlcNAc(b1-2)Man
Method in brief: as §1

[3] = biological target: Gal(b1-3)GlcNAc(b1-2)Man(a1-3)[Gal(b1-3)GlcNAc(b1-2)Man(a1-6)]Man(b1-4)GlcNAc(b1-4)GlcNAc
Method in brief: as §1

[4] = biological target: Gal(b1-3)GlcNAc(b1-2)Man(a1-3)[Gal(b1-3)GlcNAc(b1-2)Man(a1-6)]Man(b1-4)GlcNAc(b1-4)[Fuc(a1-6)]GlcNAc
Method in brief: as §1

[5] = biological target: Gal(b1-3)GlcNAc(b1-2)Man(a1-3)[GlcNAc(b1-4)][Gal(b1-3)GlcNAc(b1-2)Man(a1-6)]Man(b1-4)GlcNAc(b1-4)GlcNAc
Method in brief: as §1

[6] = biological target: Gal(b1-3)GlcNAc(b1-2)[Gal(b1-3)GlcNAc(b1-6)]Man(a1-6)[Gal(b1-3)GlcNAc(b1-2)Man(a1-3)]Man(b1-4)GlcNAc(b1-4)GlcNAc
Method in brief: as §1

[7] = biological target: Gal(b1-3)GlcNAc(b1-3)Gal(b1-3)GlcNAc
Method in brief: as §1

[8] = biological target: Gal(b1-3)GlcNAc(b1-3)Gal(b1-4)Glc
Method in brief: as §1

[9] = biological target: Gal(b1-3)GlcNAc(b1-3)Gal(b1-4)GlcNAc
Method in brief: as §1

[10] = biological target: Gal(b1-3)GlcNAc(b1-3)Gal(b1-4)GlcNAc(b1-2)Man(a1-3)[Gal(b1-3)GlcNAc(b1-3)Gal(b1-4)GlcNAc(b1-2)Man(a1-6)]Man(b1-4)GlcNAc(b1-4)GlcNAc
Method in brief: as §1

[11] = biological target: Gal(b1-3)GlcNAc(b1-3)Gal(b1-4)GlcNAc(b1-2)[Gal(b1-3)GlcNAc(b1-3)Gal(b1-4)GlcNAc(b1-6)]Man(a1-6)[Gal(b1-3)GlcNAc(b1-3)Gal(b1-4)GlcNAc(b1-2)Man(a1-3)]Man(b1-4)GlcNAc(b1-4)[Fuc(a1-6)]GlcNAc
Method in brief: as §1

[12] = biological target: Gal(b1-3)GlcNAc(b1-3)Gal(b1-4)GlcNAc(b1-3)Gal(b1-4)GlcNAc(b1-2)[Gal(b1-3)GlcNAc(b1-3)Gal(b1-4)GlcNAc(b1-3)Gal(b1-4)GlcNAc(b1-6)]Man(a1-6)[Gal(b1-3)GlcNAc(b1-3)Gal(b1-4)GlcNAc(b1-3)Gal(b1-4)GlcNAc(b1-2)Man(a1-3)]Man(b1-4)GlcNAc(b1-4)[Fuc(a1-6)]GlcNAc
Method in brief: as §1

[13] = biological target: Gal(b1-3)GlcNAc(b1-3)Gal(b1-4)GlcNAc(b1-6)[Gal(b1-3)GlcNAc(b1-3)]Gal(b1-4)Glc
Method in brief: as §1

[14] = biological target: Gal(b1-3)GlcNAc(b1-3)Gal(b1-4)[Fuc(a1-3)]GlcNAc
Method in brief: as §1

[15] = biological target: Gal(b1-3)GlcNAc(b1-3)Gal(b1-4)[Fuc(a1-3)]GlcNAc(b1-6)[Gal(b1-3)GlcNAc(b1-3)]Gal(b1-4)Glc
Method in brief: as §1

[16] = biological target: Gal(b1-3)GlcNAc(b1-3)GalNAc
Method in brief: as §1

[17] = biological target: Gal(b1-3)GlcNAc(b1-6)Gal(b1-4)GlcNAc
Method in brief: as §1

[18] = biological target: Gal(b1-3)GlcNAc(b1-6)GalNAc
Method in brief: as §1

[19] = biological target: Gal(b1-3)GlcNAc(b1-6)[Gal(b1-3)]GalNAc
Method in brief: as §1

Gal(b1-3)GlcNAc6S = biological target: Gal(b1-3)GlcNAc6S
Method in brief: as §1

[20] = biological target: Gal(b1-3)[Fuc(a1-4)]GlcNAc
Method in brief: as §1

[21] = biological target: Gal(b1-3)[Fuc(a1-4)]GlcNAc(b1-2)Man
Method in brief: as §1

[22] = biological target: Gal(b1-3)[Fuc(a1-4)]GlcNAc(b1-2)Man(a1-3)[Gal(b1-3)[Fuc(a1-4)]GlcNAc(b1-2)Man(a1-6)]Man(b1-4)GlcNAc(b1-4)[Fuc(a1-6)]GlcNAc
Method in brief: as §1

[23] = biological target: Gal(b1-3)[Fuc(a1-4)]GlcNAc(b1-3)Gal(b1-3)[Fuc(a1-4)]GlcNAc
Method in brief: as §1

[24] = biological target: Gal(b1-3)[Fuc(a1-4)]GlcNAc(b1-3)Gal(b1-4)GlcNAc
Method in brief: as §1

[25] = biological target: Gal(b1-3)[Fuc(a1-4)]GlcNAc(b1-3)Gal(b1-4)[Fuc(a1-3)]GlcNAc
Method in brief: as §1

[26] = biological target: Gal(b1-3)[Fuc(a1-4)]GlcNAc(b1-6)GalNAc
Method in brief: as §1

[27] = biological target: Gal(b1-3)[GlcNAc(b1-6)]GalNAc
Method in brief: as §1

[28] = biological target: Gal(b1-3)[Neu5Ac(a2-6)]GalNAc
Method in brief: as §1

[29] = biological target: Gal(b1-3)[Neu5Ac(a2-6)]GlcNAc(b1-4)Gal(b1-4)Glc
Method in brief: as §1

[30] = biological target: Gal(b1-3)[Neu5Ac(a2-6)]GlcNAc(b1-6)Gal(b1-4)Glc
Method in brief: as §1

[31] = biological target: Gal(b1-3)[Neu5Ac(b2-6)]GalNAc
Method in brief: as §1

Gal(b1-4)Gal = biological target: Gal(b1-4)Gal
Method in brief: as §1

[32] = biological target: Gal(b1-4)GalNAc(a1-3)[Fuc(a1-2)]Gal(b1-4)GlcNAc
Method in brief: as §1

[33] = biological target: Gal(b1-4)GalNAc(b1-3)[Fuc(a1-2)]Gal(b1-4)GlcNAc
Method in brief: as §1

Gal(b1-4)Glc = biological target: Gal(b1-4)Glc
Method in brief: as §1

B1: LCA (Lens culinaris), P02870 (protein)
chain: MASLQTQMISFYLIFLSILLTTIFFFKVNSTETTSFSITKFSPDQKNLIFQGDGYTTKGKLTLTKAVKSTVGRALYSTPIHIWDRDTGNVANFVTSFTFVIDAPSSYNVADEFTFFIAPVDTKPQTGGGYLGVFNSKEYDKTSQTVAVEFDTFYNAAWDPSNKERHIGIDVNSIKSVNTKSWNLQNGERANVVIAFNAATNVLTVTLTYPNSLEEENVTSYTLNEVVPLKDVVPEWVRIGFSATTGAEFAAHEVHSWSFHSELGGTSSSKQAADA
glycan array binding signal (z-score) [1]: -0.217
glycan array binding signal (z-score) [2]: -0.211
glycan array binding signal (z-score) (Gal(b1-3)GlcNAc(b1-2)Man): -0.144
glycan array binding signal (z-score) [3]: 0.168
glycan array binding signal (z-score) [4]: 2.03
glycan array binding signal (z-score) [5]: -0.18
glycan array binding signal (z-score) [6]: -0.256
glycan array binding signal (z-score) [7]: -0.234
glycan array binding signal (z-score) [8]: -0.231
glycan array binding signal (z-score) [9]: -0.251
glycan array binding signal (z-score) [10]: -0.176
glycan array binding signal (z-score) [11]: -0.129
glycan array binding signal (z-score) [12]: 2.72
glycan array binding signal (z-score) [13]: -0.238
glycan array binding signal (z-score) [14]: -0.233
glycan array binding signal (z-score) [15]: -0.222
glycan array binding signal (z-score) [16]: -0.239
glycan array binding signal (z-score) [17]: -0.221
glycan array binding signal (z-score) [18]: -0.214
glycan array binding signal (z-score) [19]: -0.231
glycan array binding signal (z-score) (Gal(b1-3)GlcNAc6S): -0.266
glycan array binding signal (z-score) [20]: -0.2
glycan array binding signal (z-score) [21]: -0.189
glycan array binding signal (z-score) [22]: 0.823
glycan array binding signal (z-score) [23]: -0.221
glycan array binding signal (z-score) [24]: -0.232
glycan array binding signal (z-score) [25]: -0.232
glycan array binding signal (z-score) [26]: -0.193
glycan array binding signal (z-score) [27]: -0.238
glycan array binding signal (z-score) [28]: -0.204
glycan array binding signal (z-score) [29]: -0.254
glycan array binding signal (z-score) [30]: -0.221
glycan array binding signal (z-score) [31]: -0.232
glycan array binding signal (z-score) (Gal(b1-4)Gal): -0.259
glycan array binding signal (z-score) [32]: -0.21
glycan array binding signal (z-score) [33]: -0.223
glycan array binding signal (z-score) (Gal(b1-4)Glc): -0.209
